From publication PMC4336329 (PLoS ONE, 2015)
The campaign covered roughly 310,000 compounds. About 14,000 (4.5%) showed an effect of 50% or more. The effect is printed as a negative number. This is one part of the list.

Target: human ether-à-go-go-related gene (hERG) potassium channel (human, UniProt Q12809)
Assay: primary screen, population patch clamp on CHO cells stably expressing hERG
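Further: peak tail current of the secondary pulse compared with the same well before compound.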

Chain of human ether-à-go-go-related gene (hERG) potassium channel (Q12809 whole entry, looked up): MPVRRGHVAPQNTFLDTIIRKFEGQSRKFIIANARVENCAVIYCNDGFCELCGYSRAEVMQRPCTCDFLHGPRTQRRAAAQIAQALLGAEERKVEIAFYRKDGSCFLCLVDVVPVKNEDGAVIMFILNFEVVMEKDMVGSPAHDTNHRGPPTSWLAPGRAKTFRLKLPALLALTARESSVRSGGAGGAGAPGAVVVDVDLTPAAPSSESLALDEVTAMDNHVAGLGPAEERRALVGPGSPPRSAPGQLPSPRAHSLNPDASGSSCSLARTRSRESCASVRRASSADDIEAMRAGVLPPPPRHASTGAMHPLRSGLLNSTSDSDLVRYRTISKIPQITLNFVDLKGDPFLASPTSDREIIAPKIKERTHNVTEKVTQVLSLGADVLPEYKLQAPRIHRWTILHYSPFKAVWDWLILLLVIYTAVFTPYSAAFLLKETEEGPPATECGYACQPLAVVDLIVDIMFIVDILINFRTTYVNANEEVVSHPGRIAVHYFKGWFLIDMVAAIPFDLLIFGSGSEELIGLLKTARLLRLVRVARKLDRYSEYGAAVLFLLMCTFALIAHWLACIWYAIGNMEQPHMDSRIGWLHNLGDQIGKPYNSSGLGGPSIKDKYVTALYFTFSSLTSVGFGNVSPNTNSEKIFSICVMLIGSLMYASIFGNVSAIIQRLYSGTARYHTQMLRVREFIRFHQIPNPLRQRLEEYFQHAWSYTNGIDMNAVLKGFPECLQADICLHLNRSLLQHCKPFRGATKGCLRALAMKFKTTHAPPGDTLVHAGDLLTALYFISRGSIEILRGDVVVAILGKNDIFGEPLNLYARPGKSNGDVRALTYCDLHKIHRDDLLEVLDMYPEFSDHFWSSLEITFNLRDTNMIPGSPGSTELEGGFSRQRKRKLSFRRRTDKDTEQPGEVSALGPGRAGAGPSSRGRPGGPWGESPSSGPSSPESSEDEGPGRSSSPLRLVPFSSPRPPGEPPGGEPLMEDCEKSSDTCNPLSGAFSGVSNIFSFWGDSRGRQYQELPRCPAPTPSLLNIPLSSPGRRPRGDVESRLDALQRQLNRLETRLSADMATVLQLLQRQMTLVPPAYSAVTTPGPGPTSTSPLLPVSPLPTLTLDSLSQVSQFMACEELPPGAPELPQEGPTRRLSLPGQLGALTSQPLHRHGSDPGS

| SMILES | hERG current change (%, negative = inhibition) at 10uM [%] |
| --- | --- |
| CCn1c(=O)c2ccccc2n2c(SCC(N)=O)nnc12 | 13.4 |
| CCOCCc1nnc(NC(=O)CCc2ccccc2)s1 | 14.5 |
| CCOC(=O)C1(C)/C(=N/Nc2ccc(Cl)cc2)C(=O)C(=O)N1c1ccccc1 (centres unmarked) | 2.94 |
| CCn1nc(C)cc1C(=O)NC1CC(C)(C)Cc2c1cnn2-c1cccc(F)c1 (centres unmarked) | -16.3 |
| CCOCCOC(=O)C1=C(C)Nc2ccc(C)cc2S1 | -3.7 |
| CNC(=O)NC(=O)CSc1ncc(C(F)(F)F)cc1Cl | 5.81 |
| Cc1ccnc(NC(=O)c2ccc3c(c2)C(=O)N(CCC(C)C)C3=O)c1 | -5.82 |
| CN(C)S(=O)(=O)c1cccc(C(=O)OCC(=O)Nc2ccc3c(c2)OCCO3)c1 | 6.72 |
| Cc1nc2c(C)cccc2cc1C(=O)N/N=C/c1ccc(N(C)C)cc1 | -9.49 |
| COc1ccc(C(=O)Nc2ccc(S(=O)(=O)Nc3onc(C)c3C)cc2)c(OC)c1 | 12.1 |
| CCOc1ccc(-c2nc(CSCC(=O)NCCN3CCOCC3)c(C)o2)cc1 | 11.3 |
| COCCNP(=O)(c1ccccc1)c1nc2ccccc2s1 (centres unmarked) | -4.16 |
| O=C(NC1CCCCCC1)C1c2ccccc2C(=O)N1Cc1ccco1 (centres unmarked) | -28.6 |
| Cl.O=C(CN1C2CCC1CC(NC(=O)NC1CCCCC1)C2)NC1CC1 (centres unmarked) | -2.58 |
| COc1ccc(C)cc1NC(=O)Cn1cnnn1 | 29.2 |
| COc1ccc(NC(=O)CNC(=O)c2nn(-c3ccc(OC)c(Cl)c3)c(=O)c3ccccc23)c(OC)c1 | 12 |
| CCCn1c(SCC(=O)Nc2c(C)cccc2CC)nnc1C(C)C | 3.71 |
| O=C(COc1ccc(Cl)cc1)N(Cc1ccccc1)c1ccccn1 | -36 |
| CC1CC(C)CN(S(=O)(=O)c2ccc(C(=O)NN3CCOCC3)cc2)C1 (centres unmarked) | 4.53 |
| CCCCn1c(-c2cccc(C)c2)nc2cc3[nH]c(=O)c(C(C)C)nc3cc21 | 0.235 |
| O=C(O)c1ccc(CSc2nc3ccccc3o2)cc1 | 1.24 |
| CCn1c(-c2sc(-c3ccccc3)nc2C)n[nH]c1=S | 3.82 |
| CCOC(=O)C(C)n1cnc2c1c(=O)[nH]c(=O)n2C (centres unmarked) | 5.89 |

| SMILES | hERG current change (%, negative = inhibition) at 10uM [%] |
| --- | --- |
| COc1ccccc1N/C=C1/Sc2cc(Cl)ccc2NC1=O | 8.45 |
| CN(C)C(=S)Nc1ccc(Cl)cc1 | 25 |
| CCOC(=O)N1CCN(C(=O)c2c(-c3c(Cl)cccc3Cl)noc2C)CC1 | 6.65 |
| O=c1ccc2cc(S(=O)(=O)N3CCN(c4ccccc4)CC3)ccc2[nH]1 | -0.995 |
| CCOc1nc(C)ccc1-c1noc(C)n1 | 7.48 |
| CC(C)Cn1nc(C(=O)Nc2cccc(C(=O)NC3CC3)c2)c2ccccc2c1=O | -71.6 |
| CCOc1ccc(NC(=O)COC(=O)CC2CCCCC2)cc1 | -6.75 |
| Cc1c(Cl)cccc1-n1c(SCC(=O)NCc2ccccc2Cl)nnc1-c1ccncc1 | -36 |
| CCc1cc(CNC(=O)C2CCC(=O)N(CCc3ccc(OC)cc3)C2)on1 (centres unmarked) | -24.1 |
| COCCNS(=O)(=O)c1ccc(Cl)c(C(=O)NC2CCN(Cc3ccccc3)CC2)c1 | -1.21 |
| COc1cccc(NC(=O)CSc2nc3ccccc3n2C)c1 | -16.5 |
| CN(CC(=O)Nc1ccc(F)cc1)C(=O)CSc1nc2ncc(Cl)cc2[nH]1 | -31.5 |
| C=CCNC1=C(Cl)C(=O)N(Cc2ccccc2)C1=O | -1.74 |
| O=C(COC(=O)c1cn(-c2ccccc2)nc1-c1ccccc1)c1ccc([N+](=O)[O-])cc1 | -1.56 |
| Cc1nn2c(N)c(-c3ccccc3)cnc2c1-c1ccccc1 | 26.2 |
| O=C(c1ccc(Sc2cccc(Cl)c2)c([N+](=O)[O-])c1)N1CCN(c2ccccn2)CC1 | -13.5 |
| COc1ccccc1NS(=O)(=O)c1ccc(/C=C/C(=O)N2CCN(C(C)=O)CC2)cc1 | -7.97 |
| COc1ccccc1-n1cnnc1SCC(=O)Nc1cc(C)on1 | 3.8 |
| Cc1ccc(Sc2ccc(C=C3C(=O)N(C)C(=O)N(C)C3=O)o2)cc1 | 12.2 |
| Cc1ccc(NC(=O)c2cnn(C)c2)cc1[N+](=O)[O-] | -5.92 |
| CCOC(=O)C1CCN(C(=O)CC2(CC(=O)O)CCCC2)CC1 | -0.575 |
| O=C(Nc1cccc(NC(=O)c2ccccc2Cl)c1)c1cccs1 | 2.54 |
| Cc1ccc(S(=O)(=O)/N=C(/Nc2ccc(O)c(C(=O)O)c2)c2ccccc2)cc1 | 10 |

| SMILES | hERG current change (%, negative = inhibition) at 10uM [%] |
| --- | --- |
| Cn1c(=O)c2c(c3ccccc31)OC(C)(C)CC2 | -6.49 |
| C=CCNc1c2c(nc3nnnn13)CCCC2 | 11.7 |
| COc1ccc(Nc2ncc3c(n2)CC(c2ccc(C)cc2)CC3=O)cc1 (centres unmarked) | -10.7 |
| O=C(c1ccc(Br)cc1)N1CCC2(CC1)NCCc1[nH]cnc12 | -65.8 |
| Cc1onc(-c2c(F)cccc2Cl)c1C(=O)Nc1cccc(Cn2cccn2)c1 | -6.12 |
| CCC(C)(C)NC(=O)C(c1cccc(OC)c1OC)N(CCOC)C(=O)CCC(=O)Nc1cc(C)on1 (centres unmarked) | -3.49 |
| NC(=O)c1ccsc1NC(=O)C1CC1 | 8.68 |
| CCN1CCN(C(=S)Nc2cc(C(=O)OC)ccc2C(=O)OC)CC1 | 16.9 |
| NC(=O)c1ccc(NC(=O)CN2CCN(S(=O)(=O)c3ccc4c(c3)OCCO4)CC2)cc1 | -3.78 |
| Cc1cc(=O)[nH]c(SCc2ccc(Cl)cc2)n1 | 12.9 |
| C[C@H](N)c1nnc(SCC(=O)c2ccc(Cl)cc2)o1 | -6.79 |
| COCCCNC(=O)CNC(=S)N(Cc1ccccc1F)C1CCCCC1 | 4.18 |
| CN(C)NC(=O)c1ccsc1NC(=O)c1ccc(S(=O)(=O)N2CCCC2)cc1 | -25.6 |
| Cc1sc2nc(SC3CCOC3=O)n(Cc3ccccc3)c(=O)c2c1C (centres unmarked) | -9.22 |
| Cc1onc(-c2ccccc2Cl)c1C(=O)Nc1c(C)n(C)n(-c2ccccc2)c1=O | -2.88 |
| O=C(NCC1CCCO1)c1c(O)c2cccc3c2n(c1=O)CCC3 (centres unmarked) | 1.5 |
| COc1ccc(S(=O)(=O)N(C(C)=O)c2ccc3oc(=O)sc3c2)cc1 | -6.59 |
| c1ccc(C(c2nnnn2C2CCCC2)N2CCN(c3ccccc3)CC2)cc1 (centres unmarked) | -14.9 |
| CCC1Oc2ccc(C)cc2N(CC(=O)N(Cc2ccc(C)o2)C2CCCC2)C1=O (centres unmarked) | -12.2 |
| CN(CC(=O)NC1CCCc2ccccc21)S(=O)(=O)c1cccs1 (centres unmarked) | -10.6 |
| Cc1cc(Br)ccc1NC(=O)CSc1nnc(CN2CCOCC2)n1C | 9.05 |
| O=C(Cc1n[nH]c(=O)[nH]c1=O)N/N=C/c1cccc(O)c1 | 17.6 |
| Cc1ccc2c(c1)nnn2C1CCN(S(=O)(=O)c2cccc(S(=O)(=O)N(C)C)c2)CC1 | -16.7 |

| SMILES | hERG current change (%, negative = inhibition) at 10uM [%] |
| --- | --- |
| Cn1c(SCC(=O)NCc2ccco2)nnc1C1CCCC1 | 7.74 |
| CC1CN(C(=S)Nc2cccc(Cl)c2)CC(C)O1 (centres unmarked) | 14.1 |
| COc1ccc(/C=N/NS(=O)(=O)c2ccc(F)cc2)cc1CN1CCSCC1 | -32 |
| Cc1ccc(C)c(NC(=O)CCNS(=O)(=O)c2ccc3[nH]c(=O)oc3c2)c1 | 11.4 |
| O=C(c1ccc(C(F)(F)F)cc1)N1CCC(=O)N(C(COCc2ccccc2)Cc2ccccc2)CC1 (centres unmarked) | -23.2 |
| Cc1cccc(C(=O)Nc2ccc(O)cc2C(=O)O)c1 | -7.43 |
| CC1CCCCN1S(=O)(=O)c1ccc(C(=O)Nc2nnc(-c3ccccn3)o2)cc1 (centres unmarked) | 19.5 |
| Cc1cc(=O)c2ccc(Cl)cc2[nH]1 | 11.3 |
| Br.CC(C)(C)C(=O)CN1C2=NCCN2c2ccccc21 | -32.1 |
| CN(C)C1=NC[C@H](Cc2ccccc2)N1CC1CCC(C(C)(C)C)CC1 (some centres unmarked) | -31.4 |
| CN(C)c1ccc(/C=C(\NC(=O)c2ccccc2)C(=O)NCCCN2CCOCC2)cc1 | -10.4 |
| O=C1OC(Nc2cc(Br)cc3cccnc23)c2ccccc21 (centres unmarked) | -9.92 |
| Cc1cc(=O)n2c(ccc3ccccc32)c1C#N | -14.4 |
| FC(F)(F)c1cccc(NC(=S)NC2CCCC2)c1 | 8.3 |
| CCCCCCCCCCCC1=C(O)C(=O)C=C(O)C1=O | 18.3 |
| O=C(NCCCN1CCCC1=O)c1cc(-c2cccnc2)nc2ccc(Cl)cc12 | -26.8 |
| CSc1nnc(NC(=O)C23CC4CC(CC(C4)C2)C3)s1 | 10.2 |
| Cc1ccc(C(=O)NC(=S)N2CCCCCC2)cc1 | -20 |
| Cc1ccc(C(=O)N/C(=C/c2ccc(Cl)cc2)C(=O)NCC2CCCO2)cc1 (centres unmarked) | -48.7 |
| CCC(C)NC(=O)CSc1nc2ccsc2c(=O)n1NC(=O)c1ccccc1 (centres unmarked) | 4.75 |
